In PubChem BioAssay AID2147 (National Center for Advancing Translational Sciences (NCATS), 2009):
In all, about 230,000 compounds went through this assay and about 3,600 (1.6%) were called active. This list was built around the results that the source calls inconclusive (neither active nor inactive); the mix of calls is not that of the screen. Calls come from the whole dose curve; as a rule, active = well fitted inhibition curve with a large enough effect (not every such curve was filed as active); inconclusive = small, poorly fitted or top-dose-only effect, or another doubt; inactive = no such curve, though single readings can be large or run the other way. Where the call is inconclusive, the potency comes from a doubtful curve fit.

Each compound was assayed against Lysine-specific demethylase 4E (Homo sapiens) (UniProt B2RXH2) (assay: qHTS Assay for Inhibitors of Human Jumonji Domain Containing 2E (JMJD2E)). Conditions: JMJD2E catalytic domain, FDH-coupled NADH fluorescence (FDH is formaldehyde dehydrogenase); series mostly up to 57.1 µM; activity change, negative = inhibition: at the top concentration.
Note: nearly all actives have a fitted effect of over 50% in size.
Potency is the fitted concentration of half-maximal effect; tags give direction and shape of the fitted curve.
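Throughout, for activity change, negative = inhibition: 0% = wells with enzyme and -100% = buffer wells without enzyme.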

Sequence of UniProt B2RXH2 (B2RXH2 whole entry, looked up, the tested form may be a part): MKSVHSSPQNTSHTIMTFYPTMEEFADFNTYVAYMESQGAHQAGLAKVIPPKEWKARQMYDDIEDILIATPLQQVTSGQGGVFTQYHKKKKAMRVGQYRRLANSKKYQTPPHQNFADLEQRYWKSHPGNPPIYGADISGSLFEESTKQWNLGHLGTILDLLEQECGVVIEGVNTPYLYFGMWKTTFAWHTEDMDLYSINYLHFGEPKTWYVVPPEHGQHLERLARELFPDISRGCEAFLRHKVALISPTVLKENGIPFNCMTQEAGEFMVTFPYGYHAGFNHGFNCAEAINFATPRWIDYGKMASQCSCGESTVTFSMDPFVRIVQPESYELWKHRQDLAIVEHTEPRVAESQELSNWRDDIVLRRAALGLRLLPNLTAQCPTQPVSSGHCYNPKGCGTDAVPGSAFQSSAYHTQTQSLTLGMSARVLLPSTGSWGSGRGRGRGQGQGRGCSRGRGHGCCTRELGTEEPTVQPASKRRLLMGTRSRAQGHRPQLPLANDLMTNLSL

Structure (SMILES)	Potency	activity change, negative = inhibition
COc1ccc(N(Cc2cc3cc(OC)ccc3[nH]c2=O)C(=O)c2cccnc2)cc1	inconclusive: 7.94 µM [inhibitor, full curve]	–
CC(=O)c1cc(C(=O)c2ccccc2)sc1Nc1ccccc1	inconclusive: 35.5 µM [inhibitor, single point]	–
CCC(NC(=O)c1ccccc1NC(=O)c1ccco1)C(=O)NNC(=O)c1ccc(OC)cc1 (stereo not drawn)	inconclusive: 35.5 µM [inhibitor, single point]	–
COc1ccc(C2CC(c3ccccc3)=NN2C(=O)COC(=O)C2CC2)cc1 (stereo not drawn)	inconclusive: 39.8 µM [inhibitor, single point]	–
CCCN(CCC)CCCNC(=O)CS(=O)Cc1nc(-c2ccc(OC)c(OC)c2)oc1C (stereo not drawn)	inconclusive: 28.2 µM [inhibitor, partial curve]	–
CC(=O)N(c1ccc(C)cc1)S(=O)(=O)c1ccc(Cl)cc1	inconclusive: 17.8 µM [inhibitor, partial curve, poor fit]	–
Cc1cc(N/N=C(/CCC(=O)O)C(=O)O)nc2ccccc12	inconclusive: 31.6 µM [inhibitor, single point]	–
Cc1cccc(-n2c(SCCC(=O)O)nnc2-c2cccs2)c1C	inconclusive: 31.6 µM [inhibitor, single point]	–
C#CCOCCOCCOCCNc1nc(N2CCN(C(=O)C([C@@H](C)CC)n3cc(C(N)CO)nn3)CC2)nc(N2CCN(C(=O)[C@H](CCC(=O)O)n3cc(C(N)CC(C)C)nn3)CC2)n1 (stereo partly drawn)	–	inactive: 3.96%
CCCCCn1cnc2sc(-c3ccccc3)cc2c1=O	inconclusive: 31.6 µM [inhibitor, single point]	–
CC(=O)c1sc2nc(-c3ccco3)ccc2c1N	inconclusive: 31.6 µM [inhibitor, partial curve]	–
COc1ccc(OC)c(/C=C/C(=O)c2ccc(Cl)cc2)c1	inconclusive: 39.8 µM [inhibitor, single point]	–
O=C(COc1ccc2ccccc2c1)NNC(=O)c1ccc([N+](=O)[O-])cc1	–	inactive: -16.3%
COC(=O)c1ccc(S(=O)(=O)N2CCCCCC2)cc1	–	inactive: 6.36%
Cc1c(C(=O)Nc2ccc(-c3nnc4n3CCCCC4)cc2)oc2c1ccc1ccccc12	inconclusive: 31.6 µM [inhibitor, partial curve]	–
CCOc1ccccc1C(=O)NCC(=O)O	inconclusive: 39.8 µM [inhibitor, single point]	–
CCCN(CCC)CCCNC(=S)Nc1ccc2nc(N3CCN(CC)CC3)cc(C)c2c1	inconclusive: 20 µM [inhibitor, partial curve]	–
CC(=O)C1=C(C)NC(SCC(=O)c2ccc(C)cc2)=C(C#N)C1c1ccco1 (stereo not drawn)	–	inactive: -4.61%
CC1(C)Cc2c(C#N)c(NCCc3ccccc3)nc(-c3ccco3)c2CO1	inconclusive: 31.6 µM [inhibitor, partial curve]	–
O=c1c(Cc2ccc(Cl)cc2)c(O)ccn1Cc1cccs1	–	inactive: 1.52%
Cc1ccc(S(=O)(=O)N2CCN(CC(=O)N/N=C/C=C/c3ccccc3)CC2)cc1	–	inactive: -2.62%
C=CCNC(=O)c1ccc(-c2nc(-c3ccc(Cl)cc3Cl)cs2)cc1	inconclusive: 31.6 µM [inhibitor, partial curve]	–

Structure (SMILES)	Potency	activity change, negative = inhibition
COc1cc2c(cc1OC)CN(C(=S)Nc1ccc(C)cc1C)CC2	–	inactive: 2.76%
C=CCN1C(=O)S/C(=C\c2ccc3c(c2)n(C)c(=O)n3C)C1=O	–	inactive: -7.1%
Clc1ccccc1/C=C/c1ccnc2ccccc12	inconclusive: 28.2 µM [inhibitor, partial curve]	–
CS(=O)(=O)Nc1ccc(C(=O)N2CCN(c3ccccc3F)CC2)cc1	–	inactive: 1.84%
COc1ccccc1C(=O)Nc1ccc(-c2nnn(CC(=O)NCc3ccco3)n2)cc1	inconclusive: 3.98 µM [inhibitor, full curve]	–
COc1ccc(Cl)cc1C(=O)NNC(=S)NC(=O)/C=C/c1ccco1	inconclusive: 28.2 µM [inhibitor, single point]	–
CCN(CC)S(=O)(=O)c1ccc(N2CCOCC2)c(NC(=O)c2c3c(nc4ccccc24)CCC3)c1	–	inactive: 5.5%
C=CCn1c(SCC(=O)NCC)nnc1-c1cc2c(s1)CCC(CC)C2 (stereo not drawn)	inconclusive: 22.4 µM [inhibitor, single point]	–
COC(=O)c1ccsc1NC(=O)c1cccc(OC)c1	inconclusive: 39.8 µM [inhibitor, single point]	–
CC(C#N)On1c(SC(C)C#N)nc2ccccc2c1=O (stereo not drawn)	–	inactive: -4.04%
COc1ccc(-c2nc3c4ccccc4ccn3c2CN2CCCCC2)cc1OC	inconclusive: 35.5 µM [inhibitor, single point]	–
Cc1c(C(=O)Nc2ccc(F)c(F)c2)oc2ccc(S(=O)(=O)N3CCCCC3)cc12	inconclusive: 35.5 µM [inhibitor, single point]	–
COc1ccc2nc(C)cc(SCC(NC(C)=O)C(=O)OC(C)C)c2c1 (stereo not drawn)	inconclusive: 28.2 µM [inhibitor, partial curve]	–
CC1=CC(=C2C=CC(=O)C=C2)C=C(C)N1C	inconclusive: 25.1 µM [inhibitor, single point]	–
CSCCCNC(=S)N1CCc2ccccc2C1	–	inactive: 8.24%
Cc1cc(C)c2c(c1)-c1cc(C)nn1C(c1ccc3c(c1)OCO3)N2 (stereo not drawn)	inconclusive: 35.5 µM [inhibitor, single point]	–
COc1cccc(-c2nn3c(-c4ccccn4)nnc3s2)c1	–	inactive: -22.2%
N=C1C2=C3Sc4ccccc4N3CCCC2=NN1c1cccc(S(=O)(=O)O)c1	inconclusive: 39.8 µM [inhibitor, single point]	–
NC(=O)c1ccc(NC(=O)CSC2=Nc3ccccc3C3CC=NN23)cc1 (stereo not drawn)	inconclusive: 39.8 µM [inhibitor, single point]	–
COc1ccc(-c2cccc(C3CC=CC4C3C(=O)N(Cc3ccccc3)C4c3ccc4ccccc4c3)c2)cc1 (stereo not drawn)	inconclusive: 31.6 µM [inhibitor, single point]	–
COCCN1C=C(C(=O)OC)C(c2cc3c(cc2Br)OCO3)C(C(=O)OC)=C1	inconclusive: 22.4 µM [inhibitor, partial curve]	–
